molecular target: CtermHisTag-mEGFR Triple Mutant (R797S, L858R, T790M) (Homo sapiens, UniProt P00533, C797S/L858R/T790M); assay: TR-FRET probe displacement, EGFR triple mutant; settings: 1.25 nM EGFR, 100 nM probe, 30 mins room temperature

IC50, < 20 nM:
C#Cc1cc(=O)n(-c2ccccc2)c2nc(Nc3ccc(N(C)CCN(C)C)cc3)ncc12 [Example 34, 2-((4-((2-(Dimethylamino)ethyl)(methyl)amino)phenyl)amino)-5-ethynyl-8-phenylpyrido[2,3-d]pyrimidin-7(8H)-one]
C#Cc1cc(=O)[nH]c2nc(Nc3ccc(N4CCN(C)CC4)c(CNC(=O)C=C)c3)ncc12 [Example 201]
C#Cc1cc(=O)n2c3nc(ncc13)Nc1ccc(N3CCN(C)CC3)c(c1)OCCCC2 [Example 189, 1^5-ethynyl-3^4-(4-methylpiperazin-1-yl)-1^7,1^8-dihydro-4-oxa-2-aza-1(2,8)-pyrido[2,3-d]pyrimidina-3(1,3)-benzenacyclooctaphan-1^7-one]
C#Cc1cc(=O)n([C@H]2CC[C@@H](NC(=O)CCCN(C)C)CC2)c2nc(Nc3ccc(N4CCN(C)CC4)cc3)ncc12 [Example 97, 4-(Dimethylamino)-N-[(1s,4s)-4-(5-ethynyl-2-{[4-(4-methylpiperazin-1-yl)phenyl]amino}-7-oxopyrido[2,3-d]pyrimidin-8-yl)cyclohexyl]butanamide]
C#Cc1cc(=O)n2c3nc(ncc13)Nc1ccc(N3CCN(C)CC3)c(c1)OC[C@@H]1CC[C@@H](C1)C2 [Example 233, (5^1S,5^3R)-3^5-Ethynyl-1^4-(4-methylpiperazin-1-yl)-3^7,3^8-dihydro-7-oxa-2-aza-3(2,8)-pyrido[2,3-d]pyrimidina-1(1,3)-benzena-5(1,3)-cyclopentanacycloheptaphan-3^7-one]
C#Cc1cc(=O)n(-c2ccccc2)c2nc(Nc3ccc(N4CCN(CCO)CC4)cc3)ncc12 [Example 17, 5-ethynyl-2-({4-[4-(2-hydroxyethyl)piperazin-1-yl]phenyl}amino)-8-phenylpyrido[2,3-d]pyrimidin-7-one]
C#Cc1cc(=O)n(C2CCOCC2)c2nc(Nc3ccc(N4CCN(C)CC4)cc3)ncc12 [Example 69, 5-Ethynyl-2-((4-(4-methylpiperazin-1-yl)phenyl)amino)-8-(tetrahydro-2H-pyran-4-yl)pyrido[2,3-d]pyrimidin-7(8H)-one]
C#Cc1cc(=O)n(C)c2nc(Nc3ccc(N4CCN(C)CC4)c(OC)c3)ncc12 [Example 208, 5-Ethynyl-2-((3-methoxy-4-(4-methylpiperazin-1-yl)phenyl)amino)-8-methylpyrido[2,3-d]pyrimidin-7(8H)-one]
C#Cc1cc(=O)n(-c2ccccc2)c2nc(Nc3ccc(OCCN(C)C)cc3)ncc12 [Example 13, 2-({4-[2-(Dimethylamino)ethoxy]phenyl}amino)-5-ethynyl-8-phenylpyrido[2,3-d]pyrimidin-7-one]
C=CC(=O)Nc1cc(=O)n(-c2ccccc2)c2nc(Nc3ccccc3OC)ncc12 [Example 2, N-(2-((2-Methoxyphenyl)amino)-7-oxo-8-phenyl-7,8-dihydropyrido[2,3-d]pyrimidin-5-yl)acrylamide]

IC50, 20 to 100 nM:
C#Cc1cc(=O)n(C)c2nc(Nc3ccc(N4CCN(C)CC4)c(OCC4CCCC4)c3)ncc12 [Example 211, 2-((3-(Cyclopentylmethoxy)-4-(4-methylpiperazin-1-yl)phenyl)amino)-5-ethynyl-8-methylpyrido[2,3-d]pyrimidin-7(8H)-one]
C#Cc1cc(=O)n2c3nc(ncc13)Nc1ccc(N3CCN(C)CC3)c(c1)COCCCC2 [Example 231, 1^5-Ethynyl-3^4-(4-methylpiperazin-1-yl)-1^7,1^8-dihydro-5-oxa-2-aza-1(2,8)-pyrido[2,3-d]pyrimidina-3(1,3)-benzenacyclononaphan-1^7-one]
C#Cc1c(C)c(=O)n(C)c2nc(Nc3ccc(N4CCN(C)CC4)cc3)ncc12 [Example 149, 5-ethynyl-6,8-dimethyl-2-{[4-(4-methylpiperazin-1-yl)phenyl]amino}pyrido[2,3-d]pyrimidin-7-one]
C=Cc1c(C#N)c(=O)n(-c2ccccc2)c2nc(Nc3ccccc3OC)ncc12 [Example 159, 5-ethenyl-2-[(2-methoxyphenyl)amino]-7-oxo-8-phenylpyrido[2,3-d]pyrimidine-6-carbonitrile]
C#Cc1c(C)c(=O)n(Cc2ccn(C)n2)c2nc(Nc3ccc(N4CCN(C)CC4)cc3)ncc12 [Example 110, 5-ethynyl-6-methyl-2-{[4-(4-methylpiperazin-1-yl)phenyl]amino}-8-[(1-methylpyrazol-3-yl)methyl]pyrido[2,3-d]pyrimidin-7-one]
C#Cc1cc(=O)n(C)c2nc(Nc3ccc(N4CCN(C)CC4)c(C(=O)NCC4CCCC4)c3)ncc12 [Example 221, N-(Cyclopentylmethyl)-5-({5-ethynyl-8-methyl-7-oxopyrido[2,3-d]pyrimidin-2-yl}amino)-2-(4-methylpiperazin-1-yl)benzamide]
C#Cc1cc(=O)n([C@H]2CC[C@@H](NC(=O)CN(C)C)CC2)c2nc(Nc3ccccc3OC)ncc12 [Example 90, 2-(Dimethylamino)-N-[(1s,4s)-4-{5-ethynyl-2-[(2-methoxyphenyl)amino]-7-oxopyrido[2,3-d]pyrimidin-8-yl}cyclohexyl]acetamide]
C#Cc1cc(=O)n(C)c2nc(Nc3ccc(N4CCN(C)CC4)c(NC(C)=O)c3)ncc12 [Example 50, N-[5-({5-Ethynyl-8-methyl-7-oxopyrido[2,3-d]pyrimidin-2-yl}amino)-2-(4-methylpiperazin-1-yl)phenyl]acetamide]
C#Cc1cc(=O)n(C)c2nc(Nc3cc(-c4cnn(C)c4)c(N4CCOCC4)cc3OC)ncc12 [Example 44, 5-Ethynyl-2-{[2-methoxy-5-(1-methylpyrazol-4-yl)-4-(morpholin-4-yl)phenyl]amino}-8-methylpyrido[2,3-d]pyrimidin-7-one]
C#Cc1cc(=O)n([C@H]2CC[C@@H](NC(=O)CN(C)C)CC2)c2nc(Nc3ccc(N4CCN(C)CC4)cc3)ncc12 [Example 100, 2-(Dimethylamino)-N-[(1s,4s)-4-(5-ethynyl-2-{[4-(4-methylpiperazin-1-yl)phenyl]amino}-7-oxopyrido[2,3-d]pyrimidin-8-yl)cyclohexyl]acetamide]
C#Cc1cc(=O)n(C2CCCC2O)c2nc(Nc3ccc(N4CCN(C)CC4)cc3)ncc12 (stereo not shown) [Example 73, 5-Ethynyl-8-(2-hydroxycyclopentyl)-2-((4-(4-methylpiperazin-1-yl)phenyl)amino)pyrido[2,3-d]pyrimidin-7(8H)-one]

IC50, 100 to 1000 nM:
C#Cc1cc(=O)n(C2CCCC2)c2nc(Nc3cccc(CN4CCC(CS(C)(=O)=O)CC4)c3)ncc12 [Example 183]
C=Cc1c(-c2ccccc2Cl)c(=O)n(C)c2nc(Nc3cccc(CO)c3)ncc12 [Example 169, 6-(2-chlorophenyl)-5-ethenyl-2-{[3-(hydroxymethyl)phenyl]amino}-8-methylpyrido[2,3-]pyrimidin-7-one]
C#Cc1c(C)c(=O)n(Cc2cnco2)c2nc(Nc3ccc(N4CCN(C)CC4)cc3)ncc12 [Example 176, 5-Ethynyl-6-methvl-2-{[4-(4-methylpiperazin-1-yl)phenyl]aminol}-8-(1,3-oxazol-5-ylmethyl)pyrido[2,3-d]pyrimidin-7-one]
C#Cc1cc(=O)n(-c2ccccc2)c2cc(Nc3ccccc3OC)ncc12 [Example 3, 4-Ethynyl-7-[(2-methoxyphenyl)amino]-1-phenyl-1,6-naphthyridin-2-one]
